# Measurements as given in PubChem BioAssay (NCATS).
# Values joined by “and” are separate entries in the source; they are usually repeats but may differ in a detail not shown here. Identical values can stand only once. This list was built around the results that the source calls inconclusive (neither active nor inactive); the mix of calls is not that of the screen. Where the call is inconclusive, the potency comes from a doubtful curve fit. Active and inactive are the calls of the source. Unless noted, calls follow the shape of the dose curve; as a rule, active = well fitted curve in the direction sought with a large enough effect in the repeat runs; inconclusive = weak or mixed curves; inactive = no such curve, though single readings can be large; an effect the other way counts as inactive or inconclusive.
# Biological target: Cytochrome P450 2D6 (Homo sapiens) (UniProt P10635)
# Experiment: Cytochrome P450 family 2 subfamily D member 6 (CYP2D6) small molecule antagonists: luciferase biochemical (cell-free) qHTS assay (AID 1645840); also: nearly all actives have a fitted effect of over 55% in size
# Settings: P450-Glo CYP2D6 enzyme, luciferin luminescence, 1 h; series mostly up to 57.4 µM
# Method in brief: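 P450-Glo CYP2D6 system: proluciferin substrate converted by enzyme to luciferin, read by luminescence proportional to activity. Enzyme-substrate mix with compound 10 min at room temperature, then NADPH regeneration 1 h before detection reagent.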
# Potency is read from the fitted curve at half-maximal effect; tags tell the direction and shape of the fitted curve.
# Sequence of UniProt P10635 (P10635 whole entry, looked up): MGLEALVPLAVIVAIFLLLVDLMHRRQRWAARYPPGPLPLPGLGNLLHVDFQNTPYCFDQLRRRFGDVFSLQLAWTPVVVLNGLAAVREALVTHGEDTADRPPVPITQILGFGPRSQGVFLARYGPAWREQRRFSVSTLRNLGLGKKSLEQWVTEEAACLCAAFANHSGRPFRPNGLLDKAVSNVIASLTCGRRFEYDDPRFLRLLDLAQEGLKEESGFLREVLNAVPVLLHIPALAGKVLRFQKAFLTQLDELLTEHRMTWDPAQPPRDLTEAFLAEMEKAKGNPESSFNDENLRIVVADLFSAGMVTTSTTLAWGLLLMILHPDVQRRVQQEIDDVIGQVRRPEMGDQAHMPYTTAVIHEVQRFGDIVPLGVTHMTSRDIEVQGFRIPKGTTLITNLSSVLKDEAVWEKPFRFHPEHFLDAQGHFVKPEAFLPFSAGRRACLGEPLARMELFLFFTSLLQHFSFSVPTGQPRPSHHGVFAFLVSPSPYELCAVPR
row,SMILES,Potency
1,CS(=O)(=O)Nc1ccc([N+](=O)[O-])cc1Oc1ccccc1,inactive
2,Cc1ccc(Nc2nccc(N(C)c3ccc4c(C)n(C)nc4c3)n2)cc1S(N)(=O)=O,"inconclusive: 38.9 µM [inhibitor, single point]"
3,C1COC(NC(C2CC2)C2CC2)=N1,"inconclusive: 27.5 µM [inhibitor, single point]"
4,CCOC(=O)[C@H](CCc1ccccc1)N[C@H]1CCc2ccccc2N(CC(=O)O)C1=O,"inconclusive: 34.7 µM [inhibitor, single point]"
5,CCCCc1oc2ccc(NS(C)(=O)=O)cc2c1C(=O)c1ccc(OCCCN(CCCC)CCCC)cc1,active: 2.75 µM and active: 3.38 µM
6,CCC(=O)O[C@]1(C(=O)SCF)[C@H](C)C[C@H]2[C@@H]3C[C@H](F)C4=CC(=O)C=C[C@]4(C)[C@@]3(F)[C@@H](O)C[C@@]21C,inactive
7,NC(=NCc1ccccc1)NC(=O)c1nc(Cl)c(N)nc1N,active: 5.35 µM
8,C=CC(=O)Nc1cc2c(Nc3ccc(F)c(Cl)c3)ncnc2cc1OCCCN1CCOCC1,"inconclusive: 4.36 µM [inhibitor, single point]"
9,COc1cc(NCc2ccc3nc(N)nc(N)c3c2C)cc(OC)c1OC,active: 6.92 µM
10,CCCCC(=O)O[C@]1(C(=O)CO)[C@@H](C)C[C@H]2[C@@H]3CCC4=CC(=O)C=C[C@]4(C)[C@@]3(F)[C@@H](O)C[C@@]21C,"inconclusive: 30.9 µM [inhibitor, single point]"

# Biological target: Cytochrome P450 3A4 (Homo sapiens) (UniProt P08684)
# Experiment: Cytochrome P450 family 3 subfamily A member 4 (CYP3A4) small molecule antagonists: luciferase qHTS assay (AID 1645841); also: nearly all actives have a fitted effect of over 45% in size
# Settings: P450-Glo CYP3A4 enzyme assay, luciferin luminescence; series mostly up to 57.4 µM
# Method in brief: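 Luminescent CYP3A4 activity readout: compounds plus enzyme-substrate mix 10 min at room temperature, reaction started with NADPH regenerating system for 1 h, stopped with detection reagent, read after 20 min. Ketoconazole served as control.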
# Sequence of UniProt P08684 (P08684 whole entry, looked up): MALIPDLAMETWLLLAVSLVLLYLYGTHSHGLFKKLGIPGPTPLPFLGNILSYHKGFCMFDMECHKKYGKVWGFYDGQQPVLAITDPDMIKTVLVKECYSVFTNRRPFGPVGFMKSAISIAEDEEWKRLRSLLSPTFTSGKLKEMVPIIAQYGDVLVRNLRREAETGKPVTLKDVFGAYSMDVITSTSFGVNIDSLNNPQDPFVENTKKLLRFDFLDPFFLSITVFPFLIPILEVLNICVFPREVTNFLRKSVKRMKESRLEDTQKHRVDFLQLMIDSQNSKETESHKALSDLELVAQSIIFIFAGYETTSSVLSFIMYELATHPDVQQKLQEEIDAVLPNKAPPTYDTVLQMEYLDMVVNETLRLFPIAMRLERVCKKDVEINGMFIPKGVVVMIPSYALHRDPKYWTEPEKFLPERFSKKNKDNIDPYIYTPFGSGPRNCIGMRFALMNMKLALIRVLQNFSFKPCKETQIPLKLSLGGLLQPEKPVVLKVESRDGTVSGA
row,SMILES,Potency
1,CC(c1cc2ccccc2s1)N(O)C(N)=O (stereo not drawn),active: 13.8 µM
2,C=CC(=O)Nc1cc2c(Nc3ccc(F)c(Cl)c3)ncnc2cc1OCCCN1CCOCC1,"inconclusive: 3.09 µM [falling, full curve]"
3,COc1cc(Nc2c(C#N)cnc3cc(OCCCN4CCN(C)CC4)c(OC)cc23)c(Cl)cc1Cl,inactive

# Biological target: Cytochrome P450 2C9 (Homo sapiens) (UniProt P11712)
# Experiment: Cytochrome P450 family 2 subfamily C member 9 (CYP2C9) small molecule antagonists: luciferase biochemical (cell-free) qHTS assay (AID 1645842); also: nearly all actives have a fitted effect of over 55% in size
# Settings: P450-Glo CYP2C9 enzyme assay, luciferin luminescence; series mostly up to 57.4 µM
# Method in brief: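 P450-Glo CYP2C9 system: proluciferin substrate with enzyme in mix containing 0.4% BSA, 10 min at room temperature, then NADPH regeneration solution added and incubated 1 h at 37C. Detection reagent stopped reaction; luminescence read after 20 min as RLU.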
# Sequence of UniProt P11712 (P11712 whole entry, looked up): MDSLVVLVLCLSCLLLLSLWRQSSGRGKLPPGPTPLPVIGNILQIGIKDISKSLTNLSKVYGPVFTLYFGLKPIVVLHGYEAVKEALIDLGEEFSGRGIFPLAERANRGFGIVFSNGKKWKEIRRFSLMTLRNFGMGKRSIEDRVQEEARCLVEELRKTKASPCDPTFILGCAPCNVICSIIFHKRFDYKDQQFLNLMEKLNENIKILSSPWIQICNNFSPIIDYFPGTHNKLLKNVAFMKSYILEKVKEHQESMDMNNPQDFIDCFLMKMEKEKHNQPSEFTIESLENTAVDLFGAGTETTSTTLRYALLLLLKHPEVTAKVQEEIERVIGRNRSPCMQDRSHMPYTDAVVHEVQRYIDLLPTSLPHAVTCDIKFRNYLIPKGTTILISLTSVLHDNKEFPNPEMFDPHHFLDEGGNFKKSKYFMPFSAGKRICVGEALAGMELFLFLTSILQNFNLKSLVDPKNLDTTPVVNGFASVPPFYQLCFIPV
row,SMILES,Potency
1,COc1ccc(-c2ccc3cc(C(=O)O)ccc3c2)cc1C12CC3CC(CC(C3)C1)C2,inactive
2,CC(c1cc2ccccc2s1)N(O)C(N)=O (stereo not drawn),"inconclusive: 24.5 µM [inhibitor, single point]"
3,CCC(=O)O[C@]1(C(=O)SCF)[C@H](C)C[C@H]2[C@@H]3C[C@H](F)C4=CC(=O)C=C[C@]4(C)[C@@]3(F)[C@@H](O)C[C@@]21C,"inconclusive: 2.75 µM [inhibitor, partial curve, poor fit]"
4,Fc1ccc([C@@H]2CCNC[C@H]2COc2ccc3c(c2)OCO3)cc1,"inconclusive: 2.45 µM [inhibitor, full curve] and inconclusive: 213 nM [inhibitor, full curve]"

# Biological target: Papain (Carica papaya) (UniProt P00784)
# Experiment: Primary qHTS assay for inhibitors of the protease papain (AID 1645873; active = well fitted curve in the direction sought with a large enough effect; inconclusive = small, poorly fitted or top-dose-only effect, or another doubt; inactive = no such curve, though single readings can be large; an effect the other way counts as inactive or inconclusive;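 also: papain turnover of Z-FR-AMC read as the AMC fluorescence gain over 10 min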)
# Settings: papain Z-FR-AMC cleavage, AMC fluorescence; series mostly up to 49.8 µM
# Sequence of UniProt P00784 (P00784 whole entry, looked up): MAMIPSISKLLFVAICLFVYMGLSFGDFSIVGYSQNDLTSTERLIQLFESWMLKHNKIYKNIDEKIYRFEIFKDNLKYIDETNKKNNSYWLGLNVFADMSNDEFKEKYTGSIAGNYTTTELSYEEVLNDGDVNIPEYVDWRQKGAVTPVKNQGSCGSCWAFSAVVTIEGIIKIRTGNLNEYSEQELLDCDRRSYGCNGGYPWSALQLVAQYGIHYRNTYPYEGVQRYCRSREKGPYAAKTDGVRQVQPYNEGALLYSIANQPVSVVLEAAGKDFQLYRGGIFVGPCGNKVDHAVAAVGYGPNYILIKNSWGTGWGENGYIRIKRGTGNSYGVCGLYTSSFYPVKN
row,SMILES,Potency
1,Nc1c2c(nc3ccccc13)CCCC2,"inconclusive: 11.2 µM [inhibitor, partial curve, poor fit]"
2,C1COC(NC(C2CC2)C2CC2)=N1,inactive
3,NC(=NCc1ccccc1)NC(=O)c1nc(Cl)c(N)nc1N,active: 31.6 µM
4,Fc1ccc([C@@H]2CCNC[C@H]2COc2ccc3c(c2)OCO3)cc1,"inconclusive: 28.2 µM [inhibitor, single point]"
5,CCN(CC)CCOc1ccc(Nc2ncc3cc(-c4c(Cl)cccc4Cl)c(=O)n(C)c3n2)cc1,"inconclusive: 20 µM [inhibitor, partial curve, poor fit]"
6,COc1cc2nc(N3CCN(C(=O)C4COc5ccccc5O4)CC3)nc(N)c2cc1OC (stereo not drawn),active: 25.1 µM
